Assay results reported in patent US20160137740A1 (AstraZeneca / MedImmune, published 2016).

What was measured:
[1] = target: T1, cyno/rhesus OX40 expressed on Jurkat NFκB-luciferase reporter clone B2 (cynomolgus/rhesus monkey); assay: cell-based or functional assay
Human OX40 [2] = target: T2, Human OX40 (human, UniProt P43489 29-277); assay: cell-based or functional assay
T2 sequence: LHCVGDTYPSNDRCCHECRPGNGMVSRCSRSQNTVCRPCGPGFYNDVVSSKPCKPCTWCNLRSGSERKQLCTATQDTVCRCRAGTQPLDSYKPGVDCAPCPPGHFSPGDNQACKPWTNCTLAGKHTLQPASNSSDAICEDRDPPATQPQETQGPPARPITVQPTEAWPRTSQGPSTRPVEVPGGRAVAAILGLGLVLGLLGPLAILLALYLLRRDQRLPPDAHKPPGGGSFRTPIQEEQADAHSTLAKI

Human OX40 [3] = target: T2, Human OX40; assay: cell-based or functional assay; remark: listed apart in the source
[4] = target: T1, cyno/rhesus OX40 expressed on Jurkat …; assay: cell-based or functional assay; remark: listed apart in the source
Human OX40 [5] = target: T2, Human OX40; assay: flow cytometry on human OX40-overexpressing Jurkat NFkB-luciferase clone 64 cells, AlexaFluor 647 anti-human IgG secondary [panel B]
Method: (§1) Human OX40-overexpressing Jurkat NFκB-luciferase clone 64 cells were cultured in complete RPMI+10% FBS prior to binding experiments, without the need for activation.
(§2) OX40mAb24 (10 μg/mL) or 9B12 (10 μg/mL) was diluted over a 17 point 2-fold dilution series. OX40mAb24 was added to 100,000 cells (activated primary CD4⁺ T cells or human OX40-overexpressing Jurkat NFkB-luciferase clone 64 cells) per well and incubated for one hour at 4° C. For background binding subtraction, cells were incubated in the presence of secondary antibody alone. […] Following secondary antibody incubation, cells were washed and suspended in 100 μL FACS buffer for flow cytometry analysis on a BD LSRII flow cytometer as described below.

Human OX40 [6] = target: T2, Human OX40; assay: flow cytometry on human OX40-overexpressing Jurkat clone 64 cells; 50% receptor occupancy calculated from Kd
Method: as §1, §2

Cynomolgus monkey OX40 = target: T3, Cynomolgus monkey OX40 (cynomolgus monkey); assay: flow cytometry, equilibrium binding to activated primary cynomolgus CD4+ T cells; mean of 2 experiments (StdErr)
T3 construct: also called cyno OX40
Method: Cyno CD4⁺ T cell isolation was performed with a Miltenyi non-human primate kit according to manufacturer's instructions, then CD4⁺ T cells counted on a ViCell counter and suspended at 1×10⁶ per mL in complete medium as described above.
Cyno CD4⁺ T cells (1×10⁶ per mL in complete medium) were incubated for 48 hours in a T75 cell culture flask with 2 μg/mL PHA-L and 20 IU/mL IL-2, to activate T cells and induce OX40 expression. Activated CD4⁺ T cells were removed from the flask and 100,000 cells were transferred to each well of a non-tissue culture treated 96-well round-bottom plate for binding assays and washed with 200 μL FACS buffer. Binding was performed with 10 μg/mL OX40mAb24 or 9B12 serially diluted 4-fold in FACS buffer for an 11-point data curve, or both R347 human IgG1 or mouse IgG1 clone MOPC-21 (negative controls) serially diluted 6-fold for a 3 point data curve. OX40mAb24, 9B12 or control protein was added to CD4⁺ T cells and incubated. […] Following secondary antibody incubation, cells were processed for flow cytometry as described in Section 2.3.

Human OX40 [7] = target: T2, Human OX40; assay: flow cytometry, equilibrium binding to human OX40-overexpressing Jurkat NFkB-luciferase clone 64 cells; mean of 3 experiments (StdErr)
Method: as §1, §2

Human OX40 [8] = target: T2, Human OX40; assay: cell-based or functional assay; remark: listed apart in the source
Human OX40 [9] = target: T2, Human OX40; assay: cell-based or functional assay; remark: listed apart in the source
Human OX40 [10] = target: T2, Human OX40; assay: flow cytometry on activated primary human CD4+ T cells; 50% receptor occupancy calculated from Kd
Method: as §2

Human OX40 [11] = target: T2, Human OX40; assay: cell-based or functional assay; remark: listed apart in the source
Human OX40 [12] = target: T2, Human OX40; assay: flow cytometry, equilibrium binding to activated primary human CD4+ T cells; apparent Kd, mean of 6 donors (StdErr)
Method: as §2

Human OX40 [13] = target: T2, Human OX40; assay: cell-based or functional assay; remark: listed apart in the source
Human OX40 [14] = target: T2, Human OX40; assay: cell-based or functional assay; remark: listed apart in the source
[15] = target: T4, KO_CRD3 (human OX40 aa 108 to 146 replaced with the mouse counterparts) (human; mouse, UniProt P43489 29-277); assay: flow cytometry, transfected 293F cells, column KO_CRD3
T4 construct: Chimeric variant with a transmembrane domain, transient on 293F cells
T4 chain: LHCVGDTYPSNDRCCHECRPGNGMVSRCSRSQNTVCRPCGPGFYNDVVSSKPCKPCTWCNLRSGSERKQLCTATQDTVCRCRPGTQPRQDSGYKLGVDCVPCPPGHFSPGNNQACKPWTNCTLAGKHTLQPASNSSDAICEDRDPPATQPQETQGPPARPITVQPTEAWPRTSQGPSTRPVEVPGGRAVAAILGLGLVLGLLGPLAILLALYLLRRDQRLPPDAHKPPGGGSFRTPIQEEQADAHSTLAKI

B1: OX40mAb24 (antibody, human IgG1, kappa)
heavy: QVQLQESGPGLVKPSQTLSLTCAVYGGSFSSGYWNWIRKHPGKGLEYIGYISYNGITYHNPSLKSRITINRDTSKNQYSLQLNSVTPEDTAVYYCARYKYDYDGGHAMDYWGQGTLVTVSSASTKGPSVFPLAPSSKSTSGGTAALGCLVKDYFPEPVTVSWNSGALTSGVHTFPAVLQSSGLYSLSSVVTVPSSSLGTQTYICNVNHKPSNTKVDKRV[skipping human IgG1 Fc]
light: DIQMTQSPSSLSASVGDRVTITCRASQDISNYLNWYQQKPGKAPKLLIYYTSKLHSGVPSRFSGSGSGTDYTLTISSLQPEDFATYYCQQGSALPWTFGQGTKVEIKRTVAAPSVFIFPPSDEQLKSGTASVVCLLNNFYPREAKVQWKVDNALQSGNSQESVTEQDSKDSTYSLSSTLTLSKADYEKHKVYACEVTHQGLSSPVTKSFNRGEC
notes: Humanized from 9B12; human IgG1 kappa; also called humanized anti-human OX40 IgG1κ monoclonal antibody
[1]
  EC50, NFκB-luciferase 2-cell assay, rhesus RBC-lysed whole blood + cyno/rhesus OX40 Jurkat clone B2: 0.55 nM
Human OX40 [2]
  mean EC50, NFκB-luciferase 2-cell assay, human Raji B cells + human OX40 Jurkat clone 64: 1.11 nM
Human OX40 [3]
  EC50, IL13 release, donor 645: 0.0738 nM
  EC50, IL13 release, donor 651: 0.065 nM
[4]
  fold of EC50 in the cyno/rhesus 2-cell assay over human 2-cell assays with the Raji B-cell line: 1.3 fold
Human OX40 [5]
  EC50 (read off the curve): ~0.1 nM
Human OX40 [6]
  EC50: 0.424 nM
Cynomolgus monkey OX40
  Kd: 0.581 nM
Human OX40 [7]
  Kd: 0.424 nM
Human OX40 [8]
  EC50, TNFα release, donor 645: 0.0541 nM
Human OX40 [9]
  EC50, IFNγ release, donor 367: 0.0572 nM
  EC50, IFNγ release, donor 645: 0.0582 nM
  EC50, IFNγ release, donor 651: 0.0774 nM
Human OX40 [10]
  EC50: 0.312 nM
Human OX40 [11]
  EC50, NK cell ADCC, exp 3, donor 363: 2.38 nM
  EC50, NK cell ADCC, exp 3, donor 504: 1.37 nM
  EC50, NK cell ADCC, exp 4, donor 464: 3.05 nM
  EC50, NK cell ADCC, exp 4, donor 532: 1.31 nM
  EC50, NK cell ADCC, exp 5, donor 601: 0.501 nM
  EC50, NK cell ADCC, exp 5, donor 602: 0.527 nM
Human OX40 [12]
  Kd: 0.312 nM
Human OX40 [13]
  EC50, IL5 release, donor 367: 0.0467 nM
  EC50, IL5 release, donor 651: 0.0959 nM
  EC50, IL5 release, donor 661: 0.069 nM
Human OX40 [14]
  EC50, IL10 release, donor 367: 0.0595 nM
  EC50, IL10 release, donor 651: 0.0864 nM
  EC50, IL10 release, donor 661: 0.0895 nM
[15]
  binding result: no binding (tested: 1 µg/mL)
